# Screen size: about 360,000 compounds; about 2,600 (0.72%) were called active. Inconclusive means that the source gave no clear call. Such entries were picked first, then a sample of the others. Calls follow the shape of the dose curve; as a rule, active = well fitted inhibition curve with a large enough effect; inconclusive = small, poorly fitted or top-dose-only effect; inactive = no such curve, though single readings can be large or run the other way. Potencies beside an inconclusive call are fits to weak or partial responses and may not hold up.
# Experiment: Primary qHTS for Inhibitors of ATXN expression; also: nearly all actives have a fitted effect of over 55% in size
# Settings: HEK-293 ATXN2-luciferase reporter, luminescence, 24 h; activity change, negative = inhibition: at 57 µM (top of the series)
# Method in brief: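 qHTS (up to 57 uM final) was run with 24 h compound exposure of reporter cells at 37 °C. Each well was multiplexed: SteadyGlo luminescence measured ATXN2-luciferase expression after a fluorogenic Gly-Phe-AFC viability readout (25 uM final).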
# % is scaled to controls: 0 for no effect and ±100 for the full control effect; potency is read from the fitted curve at half-maximal effect; tags tell the direction and shape of the fitted curve.
Structure (SMILES),Potency,"activity change, negative = inhibition"
Cc1[nH]c2ccc(C(=O)N3CCN(c4ccccc4Cl)CC3)cc2c1C,inactive,–
C[C@]12c3[nH]c4ccccc4c3CCN1C(=O)C(CC(=O)NCc1ccco1)C[C@@H]2C(=O)N1CCCCC1 (stereo partly specified),inactive,–
Cc1nnc(N/N=C/c2cc([N+](=O)[O-])c(N3CCC(C)CC3)cc2N2CCC(C)CC2)n1N,inactive,–
Cc1ccc(S(=O)(=O)NNC(=O)C(=O)NNc2ccccn2)cc1,"inconclusive: 31.6 µM [inhibitor, single point]",–
CCCCCCN1C[C@H](O)[C@@H](n2cc(C3CC3)nn2)C[C@@H]1c1ccc(C)cc1,"inconclusive: 39.8 µM [inhibitor, single point]",–
COCCCNc1nc(NCc2ccccc2OC)c2cnn(C)c2n1,inactive,–
COc1ccc(CC2(CO)CCN(CC3=Cc4cc(Cl)ccc4OC3)CC2)cc1,"inconclusive: 17.8 µM [inhibitor, partial curve, poor fit]",–
Cc1ccc(NC(=O)C2(c3ccc4c(c3)OC(F)(F)O4)CC2)nc1-c1cccc(C(=O)O)c1,active: 0.0863 µM,–
CCCCNc1c(-c2ccc(OC)c(SC(C)CC)c2)nc2cnccn12 (stereo unspecified),"inconclusive: 35.5 µM [inhibitor, single point]",–
CCN(CC)c1ccc2nc3ccccc3[n+](CC)c2c1,"inconclusive: 11.2 µM [inhibitor, single point]",–
CCOC(=O)N1CCN(C(=O)c2nn(-c3ccc(C)cc3)c(=O)c3c2c2ccccc2n3C)CC1,"inconclusive: 25.1 µM [inhibitor, single point]",–
CC[C@]12c3[nH]c4cc(-c5ccco5)ccc4c3CCN1C(=O)[C@@H](CC(=O)NC/C=C(\C)CCC=C(C)C)C[C@@H]2C(=O)N1CCN(C(=O)C2CC2)CC1,"inconclusive: 39.8 µM [inhibitor, single point]",–
CCN(CC)CCNc1nc2cc(OC)c(OC)cc2c2nc(-c3ccccc3)nn12,"inconclusive: 8.91 µM [inhibitor, partial curve]",–
CCOC(=O)[C@@H](N)CCC(=O)N[C@@H](CSCc1ccccc1)C(=O)N[C@@H](C(=O)OCC)c1ccccc1,inactive,–
CCOC(=O)C1=C(C)N=c2s/c(=C/c3cccc([N+](=O)[O-])c3O)c(=O)n2C1c1ccccc1 (stereo unspecified),inactive,–
O=C(CCN1C(=O)/C(=C\c2ccccc2)SC1=S)N1CCCCC1,"inconclusive: 39.8 µM [inhibitor, single point]",–
CC(=O)N1CCCc2cc(S(=O)(=O)N3CCCC(C(=O)N4CCN(c5cccc(Cl)c5)CC4)C3)ccc21 (stereo unspecified),active: 28.2 µM,–
CN(C)c1nc(Cc2ccc(NC(=O)c3ccc(C(F)(F)F)cc3)cc2)nc(N(C)C)c1CC(=O)O,inactive,–
Cc1ccc(NC(=O)C(Cc2c[nH]c3ccccc23)NC(=O)OC(C)(C)C)c(C)c1 (stereo unspecified),"inconclusive: 35.5 µM [inhibitor, single point]",–
CCc1ccc(C(O)c2ncc(-c3cccc4ccccc34)[nH]2)cc1 (stereo unspecified),"inconclusive: 28.2 µM [inhibitor, partial curve, poor fit]",–
CN1CCN(NC(=O)c2cc(-c3ccc(Cl)s3)nc3ccccc23)CC1,"inconclusive: 14.1 µM [inhibitor, partial curve]",–

Structure (SMILES),Potency,"activity change, negative = inhibition"
COc1cccc(OCC(O)CN2CCN(c3ncccn3)CC2)c1 (stereo unspecified),inactive,–
CC(C)=CCC/C(C)=C/CNC(=O)C[C@H]1C[C@H](C(=O)N2CCCCC2)[C@@]2(C)c3[nH]c4cc(-c5ccco5)ccc4c3CCN2C1=O,"inconclusive: 39.8 µM [inhibitor, single point]",–
O=C1Nc2ccc3c(c2C1=Cc1cc2c(cc1Br)OCO2)OCO3,"inconclusive: 12.6 µM [inhibitor, partial curve]",–
O=c1cc(-c2ccccc2)[nH]n1-c1nc2ccccc2[nH]1,"inconclusive: 39.8 µM [inhibitor, single point]",–
CCCCOc1cccc(C(=O)Nc2ccccc2N2CCCC2)c1,inactive,–
COc1ccccc1OCCn1c(NC(=O)c2ccccc2Cl)nc2ccccc21,"inconclusive: 28.2 µM [inhibitor, single point]",–
COc1ccccc1-n1nnnc1S(=O)(=O)Cc1ccc(Cl)cc1,active: 14.1 µM,–
Cc1ccc2c(c1)[C@H]1[C@H](CO2)[C@H](c2ccccc2)[C@]2(C)C(=O)Nc3ccc(Cl)cc3C(=O)N12,inactive,–
O=C(NCC1CCCO1)c1cccc2c1C(=O)c1ccc(N3CCC(Cc4ccccc4)CC3)cc1S2(=O)=O (stereo unspecified),"inconclusive: 39.8 µM [inhibitor, single point]",–
C[C@@H]1CN([C@H](C)CO)C(=O)c2c(c3ccccc3n2C)-c2ccccc2CO[C@H]1CN(C)Cc1ccc(Oc2ccccc2)cc1,"inconclusive: 39.8 µM [inhibitor, single point]",–
C#CCOCCOCCOCCNc1nc(N2CCN(C(=O)CCCCCCCCCCNC(=O)Cn3cc(CCCCCN)nn3)CC2)nc(N2CCN(C(=O)CCCCCCCCCCNC(=O)[C@H]([C@@H](C)CC)n3cc(CCCCCN)nn3)CC2)n1,"inconclusive: 35.5 µM [inhibitor, single point]",–
CCS(=O)(=O)c1ccc(C(=O)Nc2ccccc2OC)c(Cl)c1Cl,–,inactive: -16.7% [at 11.3 µM]
CCOC(=O)c1csc(NC(=O)CC2CCCC2)n1,inactive,–
COc1ccc2c(Cn3cnc4cc([N+](=O)[O-])ccc4c3=O)cc(=O)oc2c1,"inconclusive: 4.47 µM [inhibitor, full curve, poor fit]",–
O=C(Nc1cccc(-c2nc3ccccc3s2)c1)c1cc(-n2cnnc2)ccc1Cl,"inconclusive: 39.8 µM [inhibitor, single point]",–
COc1cc(/C=N/NC(=O)c2ccc(COc3cc(C)ccc3C(C)C)cc2)cc(OC)c1O,"inconclusive: 17.8 µM [inhibitor, partial curve]",–
CN1CCN(c2ccc(CNC(=O)C3Cc4c(-c5ccc(Cl)cc5)ccnc4O3)cc2)CC1 (stereo unspecified),"inconclusive: 25.1 µM [inhibitor, partial curve]",–
CN(C(=O)c1cccc(NC(=O)C2CCCN(C(=O)OC(C)(C)C)C2)c1)C1CCCC1 (stereo unspecified),"inconclusive: 20 µM [inhibitor, partial curve, poor fit]",–
COC(=O)c1ccc2nc(-c3cccc(N)c3)cn2c1,"inconclusive: 10.6 µM [inhibitor, partial curve, poor fit]",–
CCCCSc1nc2c([nH]1)c(=S)n(C)c(=O)n2C,"inconclusive: 39.8 µM [inhibitor, single point]",–
CCOc1ccc(-n2ccnc2SCC(=O)N2CCCc3ccccc32)cc1,inactive,–

Structure (SMILES),Potency,"activity change, negative = inhibition"
Clc1cnc(N/N=C/c2cccs2)c(Cl)c1,inactive,–
Cc1ccc(NC2=C(Cl)C(=O)c3ccccc3C2=O)cc1,"inconclusive: 39.8 µM [inhibitor, single point]",–
Cc1ccc(N(CC(=O)N2CCN(c3ccc(F)cc3)CC2)S(=O)(=O)c2c(C)noc2C)cc1,"inconclusive: 31.6 µM [inhibitor, partial curve, poor fit]",–
CN(CC(=O)Nc1ccc(C#N)cc1)Cc1ccc(Cl)cc1,inactive,–
Cc1cc(F)ccc1NC(=O)CCS(=O)(=O)c1cc2c(cc1C)NC(=O)CO2,inactive,–
CCN(CC)c1ccc(N=Cc2ccc(N(CC)CC)cc2O)cc1,"inconclusive: 20 µM [inhibitor, partial curve, poor fit]",–
C=CC[C@@H](CC(=O)N[C@@H](CO)Cc1ccccc1)C(=O)NC[C@@H](OC(=O)[C@@H](CC=C)CC(=O)OC(C)(C)C)c1ccccc1,"inconclusive: 39.8 µM [inhibitor, partial curve, poor fit]",–
Cc1cc(C)c2c(c1)c1nnc(SCCN3CCCCC3)nc1n2C,"inconclusive: 12.6 µM [inhibitor, partial curve, poor fit]",–
COc1ccc([C@H]2CC(=O)C=C(c3cc(Br)ccc3OC)C2)cc1,"inconclusive: 12.6 µM [inhibitor, partial curve, poor fit]",–
CC[C@]12c3[nH]c4cc(-c5ccco5)ccc4c3CCN1C(=O)[C@@H](CC(=O)NC/C=C(\C)CCC=C(C)C)C[C@@H]2C(=O)N1CCN(C(=O)c2ccco2)CC1,"inconclusive: 39.8 µM [inhibitor, single point]",–
Cc1cnc(NC(=O)COc2ccc3c(c2)CCC3)s1,"inconclusive: 39.8 µM [inhibitor, single point]",–
Cc1cccc(N2CCN(S(=O)(=O)c3ccc(-c4ccc(=O)[nH]n4)o3)CC2)c1C,"inconclusive: 12.6 µM [inhibitor, partial curve]",–
CSc1ccc(-c2nc(CSCC(=O)NC3CC3)c(C)o2)cc1,"inconclusive: 31.6 µM [inhibitor, partial curve, poor fit]",–
CCC(C)Sc1cc(-c2nc3cc(C)ccn3c2NC2CCCCC2)ccc1OC (stereo unspecified),"inconclusive: 31.6 µM [inhibitor, single point]",–
Cc1c(Cl)cccc1NC(=S)N=Nc1c(O)n(CN2CCOCC2)c2ccccc12,"inconclusive: 10 µM [inhibitor, partial curve, poor fit]",–
CCCS(=O)(=O)Nc1ccc(Nc2c3ccccc3nc3ccccc23)c(OC)c1,"inconclusive: 1.68 µM [inhibitor, full curve]",–
O=C(CCCN1C(=O)/C(=C/c2cccs2)SC1=S)Nc1cccc(C(=O)O)c1,inactive,–
O=C(CCOc1ccccc1)N1CCN(c2ccc(O)cc2)CC1,"inconclusive: 14.1 µM [inhibitor, partial curve, poor fit]",–
O=C(NCCCN1CCCC1)c1ccc2c(c1)N(Cc1cccc(Cl)c1)C(=O)c1ccccc1S2=O (stereo unspecified),inactive,–
